Measurements from PubChem BioAssay AID1240 (Sanford-Burnham Center for Chemical Genomics, 2008).
Screen size: about 50,000 compounds; about 800 (1.6%) showed an effect of 50% or more. The list shows a part of the results.

Target: Bcl-2-like protein 10 (Homo sapiens) (UniProt Q9HD36)
Assay: Phenotype converters, Bcl-B/TR3 peptide binding displacement, primary biochemical FP (AID 1240);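 note: 0% = Bcl-B with tracer peptide and DMSO and 100% = tracer peptide lacking Bcl-B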
Settings: GST-Bcl-B / FITC-TR3 peptide fluorescence polarization; stronger effect = higher value; compound at 3.75 mg/L

UniProt Q9HD36, sequence (Q9HD36 whole entry, looked up): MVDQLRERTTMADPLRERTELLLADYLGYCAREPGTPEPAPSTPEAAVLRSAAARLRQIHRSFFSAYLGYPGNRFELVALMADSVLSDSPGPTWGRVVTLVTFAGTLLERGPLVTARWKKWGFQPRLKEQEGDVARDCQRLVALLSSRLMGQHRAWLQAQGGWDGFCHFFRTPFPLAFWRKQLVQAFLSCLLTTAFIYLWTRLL

In order of falling displacement:
1. CCOc1cccc(=[O+]CC)c2c(C)oc(C)c12  154%
2. COc1ccc(C2=N/C(=C/c3ccccc3F)C(=O)N2c2ccccc2)cc1  125%
3. O=C(O)CCC(=O)Nc1ccc(CC(=O)O)cc1  21.4%
4. Cc1ccc(N2C(=O)C3C4CCC(O4)C3C2=O)nc1 (stereo not given)  17.4%
5. CCOC(=O)c1ccccc1NC(=O)CSC(N)=O  16.7%
6. Cc1ccc(-c2cc(C(F)(F)F)n3nc(C(=O)N4CCCc5ccccc54)cc3n2)cc1  16.4%
7. Cc1cc(C)c2oc(-c3ccc(NC(=O)c4ccccc4[N+](=O)[O-])cc3)nc2c1  16.3%
8. O=C(OCCc1ccc(SC(=O)c2ccccc2)s1)c1ccccc1  15.9%
9. C(=C\c1nc2ccccc2nc1/C=C/c1ccccc1)/c1ccccc1  15.6%
10. O=C(COc1ccc([N+](=O)[O-])cc1)Nc1ccc2nn(-c3ccccc3)nc2c1  15.1%
11. N#Cc1ccc(NC(=S)Nc2ccccc2)cc1  15%
12. CC(=O)C(C1=NC(C)(C)Cc2cc(C)c(C)cc21)c1ccccc1 (stereo not given)  14.9%
13. CN1CCN(C(=O)CN2C(=O)/C(=C/c3ccccc3Cl)SC2=S)CC1  14.1%
14. O=C1NC(=O)N(c2cccc(F)c2)C(=O)/C1=C/c1ccc(Oc2ccc([N+](=O)[O-])cn2)cc1  13.1%
15. COc1ccccc1NC(=O)C1CCC(=O)N1 (stereo not given)  12.7%
16. CC(/C=C/c1ccc2ccccc2c1)=C\C(=O)O  12.3%
17. Cc1ccc(/C=C2\SC(=S)N(C(Cc3ccccc3)C(=O)O)C2=O)cc1 (stereo not given)  11.8%
18. O=C(NCCNc1ccc([N+](=O)[O-])cc1Cl)c1ccccc1F  11.6%
19. CC(CC(=O)Nc1ccc(Br)cc1)c1ccccc1 (stereo not given)  11.4%
20. O=C(CSc1nc2ccccc2c(=O)n1-c1ccccc1)Nc1ccc(F)cc1  11.3%
21. O=C(O)C1C2CCC(O2)C1C(=O)NCc1ccc(F)cc1 (stereo not given)  11.2%
22. O=C(Nc1ccc(-c2nc3ccccc3o2)c(O)c1)c1ccc(-c2ccccc2)cc1  11%
23. COc1ccc(OC)c(/C=C/C(=O)c2c(-c3ccccc3)c3cc(Br)ccc3[nH]c2=O)c1  10.7%
24. Cc1cc(C)cc(CC2CC(=O)N(c3ccc(I)cc3)C2=O)c1 (stereo not given)  10.6%
25. COc1ccc(-c2cc(C(=O)NCc3ccccc3)c3ccccc3n2)cc1  10.6%
26. O=C(c1cccc(Br)c1)N1CCN(c2c(Cl)cccc2[N+](=O)[O-])CC1  10.3%
27. O=C1C=C(Nc2ccc(Cl)cc2)C(=O)N1c1cccc(C(F)(F)F)c1  10.3%
28. CN(Cc1ccccc1)C(=O)c1nn2c(C(F)(F)F)cc(-c3ccccc3)nc2c1Cl  10.3%
29. Cc1ccc(OCC(=O)Nc2ccc(C)cc2[N+](=O)[O-])cc1  10.3%
30. O=C(O)c1c(NS(=O)(=O)c2ccccc2)sc2c1CCCC2  9.9%
31. CN1CCN(C(=O)c2nn3c(C(F)(F)F)cc(-c4ccc(Cl)cc4)nc3c2Cl)CC1  8.5%
32. CC(=O)N1c2ccccc2Nc2ccccc21  8.1%
33. COc1ccc(N(CC(=O)O)S(=O)(=O)c2ccccc2)cc1  8%
34. O=C(Nc1ccccc1O)c1ccc2c(c1)C(=O)N(c1ccc(Cl)cc1)C2=O  7.5%
35. COc1ccc(C)cc1NC(=O)Cn1cnc2c1c(=O)n(C)c(=O)n2C  6.8%
36. CC1(c2ccccc2)CC(C)(C)N(C(=O)CSC2=NCCS2)c2ccccc21 (stereo not given)  6.6%
37. COc1cc(NS(=O)(=O)c2ccc(NC(=O)c3ccc(-c4ccccc4)cc3)cc2)ncn1  6.5%
38. COC(=O)C1=CNC=C(C(=O)OC)C1c1ccccc1C  6.5%
39. CC12CCC(C(=O)N(NC(=O)c3ccc(O)cc3)C1=O)C2(C)C (stereo not given)  6.3%
40. O=C(c1ccncc1)N1CCN(C(c2ccccc2)c2ccccc2)CC1  5.9%
41. COc1ccc(C(C)N(C)CCC(c2ccccc2)c2ccccc2)cc1OC (stereo not given)  5.7%
42. CCCCNC(=O)C(=O)NCCCOC(C)C  5.1%
43. O=S(=O)(c1ccc(Cl)cc1)N1C(=S)SCC1c1ccccc1 (stereo not given)  4.2%
44. Cn1nnnc1SCC(=O)Nc1ccccc1  4.1%
45. O=S1(=O)CCC(NC(=S)N/N=C/c2ccc(-c3ccc(Br)cc3)o2)C1 (stereo not given)  4%
46. COC(=O)CN(c1cccc(Cl)c1)S(=O)(=O)c1ccc(C)cc1  3.9%
47. O=C(Cc1cccc2ccccc12)N/N=C/c1cccc(Br)c1  3.9%
48. COc1ccc(C(N)=O)cc1NC(=O)c1ccc(Cl)c(Cl)c1  3.9%
49. O=C(Cc1ccc([N+](=O)[O-])cc1)N1c2ccccc2Sc2ccccc21  3.2%
50. CCOC(=O)/C(C#N)=N/Nc1ccc2c(c1)c1ccccc1n2CC  2.8%
51. COc1ccc(Nc2ncnc3[nH]ncc23)cc1  2.5%
52. COc1ccc(C2Nc3ccccc3C(=O)N2Cc2ccco2)cc1COc1ccccn1 (stereo not given)  2.5%
53. O=C(Cc1ccc(Cl)cc1)Nc1ccc(-c2nc3ccccc3[nH]2)cc1  1.9%
54. CCOc1ccc2nc(SC3CC(=O)N(c4ccccc4C)C3=O)sc2c1 (stereo not given)  1.5%
55. Cc1ccc(/C=C2\C(=O)NN(c3ccc(Cl)c(Cl)c3)C2=O)s1  1%
56. O=C(/C=C/c1ccco1)Nc1ccc2c(c1)OCCO2  0.8%
57. C/C(=N/NC(=O)COc1cccc(Cl)c1)c1cccc([N+](=O)[O-])c1  0.8%
58. Cc1c(Cl)c([N+](=O)[O-])nn1CC(=O)N1CCCC1  0.4%
59. CCCOc1ccc(C(=O)Nc2ccc(NC(=O)c3ccco3)c(OC)c2)cc1  0%
60. COc1ccccc1NS(=O)(=O)c1ccc(C)c([N+](=O)[O-])c1  -0.3%
61. O=C(O)c1c[nH]c2cc(N3CCOCC3)c(F)cc2c1=O  -0.4%
62. COc1ccc(/C=C2/NC(=S)NC2=O)cc1OCc1ccccc1  -1.2%
63. O=C(NC(=S)Nc1ccc2oc(-c3cccnc3)nc2c1)c1ccc(Cl)cc1  -1.3%
64. Cc1cccc(NC(=O)c2c(Cl)cccc2Cl)n1  -1.7%
65. Cc1ccc(OCCNC(=O)CCc2ccccc2)cc1  -2.1%
66. CCOC(=O)c1c(NC(=S)NC(=O)c2ccc([N+](=O)[O-])cc2)sc(C)c1C  -2.1%
67. C=CCN1C(=O)/C(=C\c2ccccc2)C(C(=O)OC)=C1C  -2.2%
68. COc1cccc(C(=O)Nc2cccc3nsnc23)c1  -2.4%
69. CC(=O)c1ccc(N2C(=O)c3ccc(Oc4ccc5c(c4)C(=O)N(c4ccc(C(C)=O)cc4)C5=O)cc3C2=O)cc1  -2.7%
70. COc1ccc(S(=O)(=O)N(CCc2ccccc2)CC(=O)NCc2ccc(Cl)cc2)cc1  -2.8%
71. O=C(Cc1ccc(Br)cc1)Nc1ccc(F)c(F)c1  -3.7%
72. O=C1NC(=Nc2cccc(O)c2)CS1  -3.8%
73. COc1cc(F)ccc1S(=O)(=O)N1CCCCCC1  -4%
74. O=C1c2ccccc2NC(c2ccccc2[N+](=O)[O-])N1O (stereo not given)  -4.5%
75. Cn1c(=O)c2c(nc(Oc3cccc(/C=N/NC(N)=S)c3)n2C)n(C)c1=O  -4.7%
76. CCOc1ccc(N2C(=O)/C(=C/c3ccc(OCc4ccc(C(=O)O)cc4)c(OC)c3)C(=O)NC2=S)cc1  -4.8%
77. CCCn1c(C(O)c2cccc(OC)c2)nc2ccccc21 (stereo not given)  -5.1%
78. O=C(/C=C/c1ccc(Cl)cc1)Nc1ccc(OC(F)(F)F)cc1  -5.2%
79. CC(=NC#N)C1=C(O)c2ccccc2C1=O  -5.3%
80. CCOC(=O)C1=C(O)/C(=C/c2ccc(O)c(OCC)c2)SC1=Nc1ccc([N+](=O)[O-])cc1  -5.5%
81. COc1ccc(Br)cc1Cn1c(=O)[nH]c2cc(C(F)(F)F)ccc21  -5.6%
82. O=C(NCc1ccccn1)c1ccccc1[N+](=O)[O-]  -5.8%
83. C/C(=N\N1CCN(Cc2cccc3ccccc23)CC1)c1ccc(O)cc1  -5.8%
84. O=C(NNS(=O)(=O)c1ccc(Br)cc1)[C@H]1C[C@H]1c1ccccc1  -5.9%
85. Cc1ccccc1OCC(=O)N1CCN(c2ccc([N+](=O)[O-])cc2)CC1  -6.5%
86. Cc1ccc(C2=Nc3ccccc3Nc3c2cc([N+](=O)[O-])cc3[N+](=O)[O-])cc1  -6.9%
87. COc1ccccc1/C=C/C(=O)c1ccc(Br)cc1  -7%
88. O=C(Cc1ccccc1)N1CCN(S(=O)(=O)c2ccc(Cl)cc2)CC1  -7.4%
89. COc1ccc(O)c(/C=N/NC(=O)CSc2ccc3ccccc3n2)c1  -7.5%
90. Nc1nonc1C(=O)N/N=C/c1cccc(OCC(=O)O)c1  -7.7%
91. C#CCSc1nc2ccccc2n1C(=O)CCN1C(=O)c2cccc3cccc(c23)C1=O  -8%
92. CC1(C)CC(=O)C=C(NNC(=O)CCc2ccccc2)C1  -8%
93. COC(=O)NNC(=O)c1cc(OC)c(OC)c(OC)c1  -8%
94. O=C(CC1Sc2ccccc2NC1=O)Nc1ccc([N+](=O)[O-])cc1 (stereo not given)  -8.1%
95. COC(=O)c1ccccc1NC(=O)c1nn(C)cc1[N+](=O)[O-]  -8.1%
96. O=C(/C=C/NNC(=O)c1cccnc1)c1ccc(Cl)cc1  -8.2%
97. CCOC(=O)C1=C(O)/C(=C/c2ccc(C)cc2)SC1=Nc1ccc(C)cc1  -8.9%
98. COc1ccc(OC)c(/C=C2\SC(=S)N(CCC(=O)O)C2=O)c1  -9.2%
99. CC(C)(C)c1ccc(S(=O)(=O)N/N=C/C=C/c2ccco2)cc1  -9.2%
100. CCOc1ccc(C(=O)Nc2ccccc2O)cc1Cl  -9.2%
101. COc1cc(NC(=O)C(=O)NCCN(C)C)c(OC)cc1Cl  -10.4%
102. CC(=O)Nc1ccc(C(=O)NC2=NCCS2)cc1  -10.7%
103. COc1ccc(N2CC(C(=O)N/N=C/c3cc(OC)ccc3OC)CC2=O)cc1 (stereo not given)  -10.9%
104. O=C1OC(c2ccccc2Cl)=N/C1=C\c1ccccc1C(F)(F)F  -11.5%
105. COc1ccc(CNCc2cccc(Cl)c2)cc1OC  -11.5%
106. COC(=O)COc1ccc(/C=C2\C(=O)NC(=O)N(c3ccc(F)cc3)C2=O)cc1OC  -12.7%
107. COc1ccc(Cl)cc1NC(=O)c1cccc(F)c1  -13.8%
108. COc1cc(C(=O)Nc2nnc(CC(=O)NCc3ccccc3)s2)cc(OC)c1OC  -14%
109. Cc1ccc2nc(NC(=O)CSc3ncn[nH]3)sc2c1  -26%
110. CC(=O)NC1=NC(=O)/C(=C\C=Cc2ccccc2)S1  -42.4%
